No constants are given. Whether binding was seen depends on the method and setting. In cells and extracts the contact can be indirect. Tags and fused reporters may be left off the sequences shown.

Data on 1 molecule can be found in publication PMC4265758.

The target in the experiment is GST-fused CNOT8, Q9D8X5. Nature of the experiment: pull-down; protein extracts from E. coli expressing GST-fused CNOT8 combined with MBP-tagged NANOS2; precipitated with glutathione sepharose; MBP-NANOS2 detected by western blotting. The conditions noted are these: remark: other sources report otherwise. A general note: In western blotting, separated proteins are transferred to a membrane and probed.

B1: MBP-tagged NANOS2, P60322 1-136 (protein)
chain: MDLPPFDMWRDYFNLSQVVMDIIQSRKQRQEGEVAEEPNSRPQEKSEQDLEGYPGCLPTICNFCKHNGESRHVYTSHQLKTPEGVVVCPILRHYVCPLCGATGDQAHTLKYCPLNSSQQSLYRRSGRNSAGRRVKR
B1: the binding entry is on record as “no binding”.
